From the supplement of paper PMC10338343 come the findings set out here.

± gives the standard deviation. The full ranking holds about 5,500 sequences; the median of “pre-steady-state target cleavage rate” is about 0.1, and the highest 2% start at about 0.64. The list shows a part of the results, in another mix than the full data.

In the assay the test system is MIWI (PIWIL1) piRISC loaded with piRNA #2 (30 nt). In words: pre-steady-state target cleavage rate (min^-1); MIWI and MILI are mouse PIWI proteins and EfPiwi is from a freshwater sponge; tags in brackets are library labels; higher = faster piRNA-guided slicing of the target. Conditions: guide: piRNA #2 5'p-UUAGGUAACCCAGUAGAUCCAGAGGAAUUC; auxiliary factor: 500 nM mouse GTSF1. In short, it runs like this: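 A transcribed, DNA-blocked target RNA library (0.1 nM) and 1 nM active affinity-purified piRISC bearing one synthetic guide were incubated in HEPES–potassium acetate buffer at 33 °C for 0–8 or 0–960 min, either with or without 500 nM GTSF1 partner protein. Uncleaved targets were sequenced, normalised to depth and to weakly complementary targets, and pooled over three trials, with k3 capped at 0.0001 min^-1. The pre-steady-state cleavage rate was derived with a burst-and-steady-state fit.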
On to CUUAAGGAGUGCAUCUACUGGGUUACGUAA, for which the “pre-steady-state target cleavage rate” value turned out to be 0.0109 ± 0.003. Next, CUUAAGGACUGGAUCUAGUGCGUUACCUAA: 0.013 ± 0.0093; CUAUUCGUCUGGAUCUACUGGGUUUCCUAA: 0.472 ± 0.057.

For the sequence CUAUUCCUCUGGUAUCUACUGGGUUACCUAA, the “pre-steady-state target cleavage rate” value stood at 0.343 ± 0.049. As for “CUUAACCUCUGGAUCUACUGGGUUACCUAU [g2:g25:cont:t1U]”, the figure is 0.185 ± 0.022; as for CUUAAGGAGUGGAUCUACUGGAUUACCUAA, 0.0894 ± 0.025. Next, CUUAAGCUCUGGAUCUACUGGGUUUCCUUA: 0.0482 ± 0.013.

Turning to CUUAAGGUCUGGAUCUACUGGGUAACCUAA, the “pre-steady-state target cleavage rate” value was 0.103 ± 0.027. As for CUUAACCUCUCGAUCUUCUGGGUUACCUAA, the figure is 0.47 ± 0.044. Next, CUUAUCCUCUGGAUCUUCUGGCUUACCUAA: 0.0237 ± 0.0092; CUUAAGGUCUGGAUCUACUGGGUUACCUCAA: 0.279 ± 0.039. For the sequence CUUAAGGAGUGGAUCUACUGGGUUACGUUA, the “pre-steady-state target cleavage rate” value stood at 0.0506 ± 0.013.

For CUUAAGCUUUGGAUCUACUGGGUUACCUAA, the “pre-steady-state target cleavage rate” value was found to be 0.213 ± 0.022. Take CUUAACCUCUGGUUCUACUGGGUUAGCUAA: the “pre-steady-state target cleavage rate” value was 0.201 ± 0.067. As for CUUAACCUCUGGAUCUACUGGGAUAGCUAA, the figure is 0.0953 ± 0.016; as for CUAUUCCUCUGGAUCUACUGGGUUACCUGA, 0.41 ± 0.14. As for CUUAAGGUCUGGUACUACUGGGUUACCUAA, the figure is 0.12 ± 0.025; as for CUUAAGCUGUGCAUCUACUGGGUUACCUAA, 0.135 ± 0.015; as for GAAUUCACUCUGGAUCUACUGGGUUACCUAA, 0.166 ± 0.04. Next, CUUAAGGACUCGGAUCUACUGGGUUACCUAA: 0.0726 ± 0.02; GAAUUCUCUGGAUCUACUGGGUUACCUAA: 0.253 ± 0.049; CUUAUCUCUCUGGAUCUACUGGGUUACCUAA: 0.18 ± 0.028.

Regarding CUUAAGGUCUGGAUCUACUGGGAAUCCUAA, the “pre-steady-state target cleavage rate” value was 0.0099 ± 0.0043. As for CUAUUCCUGUGGAUCUACUGGGUUACCUAA, the figure is 0.5 ± 0.052. Next, CUUAUCCUCUGGAUCUACAGGGUUACCUAA: 0.254 ± 0.025; CUUAUCCUCUGGAACUACUGGCUUACCUAA: 0.109 ± 0.01. For the sequence CUUAAGCUCUGGAUCUACUGGGUUACCUUAA, the “pre-steady-state target cleavage rate” value was 0.0919 ± 0.017. As for CUUAUCCUCUCGAUCUACUGGGUUACGUAA, the figure is 0.728 ± 0.046; as for GAAUUCCUCUGGAUCUACUGGGUUGCCUAA, 0.323 ± 0.053. As for GAAUUCCUCUGGAUCUACUGGGAUACGUAA, the figure is 0.235 ± 0.037; as for CUUAAGGAGACCUACUAGUGCGUUACCUAA, 0.00858 ± 0.0025. Next, CAAUUCCUCUGCAUCUACUGGGUUAGCUAA: 0.365 ± 0.035; CUUAACCUCUGGAUCUACUGGGUUACUCUAA: 0.134 ± 0.015. Take CUUAAGGUCUGGAUCUACUGGGUUAGCAAA: the “pre-steady-state target cleavage rate” value amounted to 0.0302 ± 0.012. As for CUUAAGGUCUGGAUCUACUGGGUUACGCUAA, the figure is 0.401 ± 0.045; as for CUUAACCUCUGGAUCUACAGGGAUACCUAA, 0.111 ± 0.013. As for CAAUUCCUCUGGAUCAACUGGGUUACGUAA, the figure is 0.455 ± 0.057.

Turning to CUAUUGCUCUGGAUCUACUGCGUUACCUAA, the “pre-steady-state target cleavage rate” value was 0.314 ± 0.047. As to CAAAUCCUCUGGAUCUACUGGCUUACCUAA, the “pre-steady-state target cleavage rate” value was 0.109 ± 0.02. Next, CUACUCCUCUGGAUCUACUGGGUUACCUAA: 0.246 ± 0.039; CUUAACCAUCUGGAUCUACUGGGUUACCUAA: 0.317 ± 0.027; GAAUAGGUCUGGAUCUACUGGGUUACCUAA: 0.154 ± 0.032. Next, CUAUAUCCUCUGGAUCUACUGGGUUACCUAA: 0.352 ± 0.071; CUUAUCCUCUGCAUCUACUGCGUUACCUAA: 0.377 ± 0.032.

CUUAACGUCUGGUUCUACUGGGUUACCUAA: the “pre-steady-state target cleavage rate” value is 0.358 ± 0.033. For CUUAACCUCUGGAUGUACUGGGUUACCAAA, the “pre-steady-state target cleavage rate” value stood at 0.215 ± 0.02. Next, GAAUUCCUCUGGAUCUACUGGGUUAACCUAA: 0.31 ± 0.045. Turning to CUUAAGGAGUGGAUCUACUGGGUUACACUAA, the “pre-steady-state target cleavage rate” value came out at 0.0696 ± 0.016. Next, CUUUUCCUGUGCAUCUACUGGGUUACCUAA: 0.264 ± 0.025; GAAUUCCUCUGGAUCUACUGGGUUUGGUAA: 0.244 ± 0.061; CUUAUCCUCUGGACUACUGGGUUACCUAA: 0.166 ± 0.021. As for GAAUUCCUCUGGAUGUACUGGGUUACCAAA, the figure is 0.327 ± 0.049. As for GAAUUCCUCUGGUACUACUGGGUUACCUAA, the figure is 0.581 ± 0.092; as for CUUAAGCUCUGGAUCUUCUGGGUUACCUAA, 0.0956 ± 0.018. Regarding CAAUUCCUCUGGAUCAAGUGGGUUACCUAA, the “pre-steady-state target cleavage rate” value was determined as 0.00786 ± 0.0037.

CUUAAGCUCUGGUAGUACUGGGUUACCUAA: the “pre-steady-state target cleavage rate” value is 0.063 ± 0.0097. As for CUAUUCCACUGGAUCUACUGGGUUAGCUAA, the figure is 0.16 ± 0.04; as for CAAUUCCUCUGGAUCAACUGGGUAACCUAA, 0.145 ± 0.027; as for CAAUUCCUCUGGAUCUACUGCGUUAGCUAA, 0.128 ± 0.056. Next, CUAUUCCUCUGGAUCUACAGGGUAACCUAA: 0.13 ± 0.024; CUUAUCCUCUGGAUCUACUGGGUUACUUAA: 0.562 ± 0.05. For CUUAAGCUCUGGAACUACUCGGUUACCUAA, the “pre-steady-state target cleavage rate” value came to 0.0422 ± 0.011.

As to CAAUUCCUCACCAUCUACUGGGUUACCUAA, the “pre-steady-state target cleavage rate” value was found to be 0.573 ± 0.069. Next, CUUAAGGACCGGAUCUACUGGGUUACCUAA: 0.0763 ± 0.025; CUUUUCCUCUGGAUCUACUGGGAUACCUUA: 0.142 ± 0.026; CUUAAGGUCUGGAUCUACUGAGGUUACCUAA: less than 0.0001. As for CUUAACUCUCUGGAUCUACUGGGUUACCUAA, the “pre-steady-state target cleavage rate” value was 0.105 ± 0.016. Next, GAAAUCCUCUGGAUCUACUGGGUAACCUAA: 0.111 ± 0.026. Next, CAAUUCGUCUGCAUCUACUGGGUUACCUAA: 0.538 ± 0.045; CUUAAGGUCAGGAUCUACUGGGUUACCUAA: 0.101 ± 0.023; CUUAAGCUCUGGAUCUACUGCGUUACCAAA: 0.117 ± 0.029.
